Data published in PubChem BioAssay AID360 (National Center for Advancing Translational Sciences (NCATS), 2006).
Among all 48,000 compounds or so, about 550 (1.1%) were called active. Inconclusive results (about 4%) are left out. No stated cut-off is given here; in the data, active means potency below about 15 µM; inconclusive means mostly about 16 µM to 33 µM; inactive means weaker than that. The list shows a part of the results.

What follows are compounds tested against Lysosomal acid glucosylceramidase (Homo sapiens) (UniProt P04062) (assay: Glucocerebrosidase). Details: purified enzyme, resorufin glucoside fluorescence (screen aimed at inhibitors), 20 min.
Method in brief: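 Normal human glucocerebrosidase (0.2 nM final) was assayed with resorufin β-D-glucopyranoside (30 uM final) in 50mM citric acid/KH2PO4, 10mM sodium taurocholate, 0.01% tween-20, pH 5.9. Compounds were titrated; fluorescence (Ex 548, Em 600) read after 20 min at RT.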
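Further: the screen sought inhibitors.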
Potency means the concentration at half of the fitted maximal effect.

Sequence of UniProt P04062 (P04062 whole entry, looked up): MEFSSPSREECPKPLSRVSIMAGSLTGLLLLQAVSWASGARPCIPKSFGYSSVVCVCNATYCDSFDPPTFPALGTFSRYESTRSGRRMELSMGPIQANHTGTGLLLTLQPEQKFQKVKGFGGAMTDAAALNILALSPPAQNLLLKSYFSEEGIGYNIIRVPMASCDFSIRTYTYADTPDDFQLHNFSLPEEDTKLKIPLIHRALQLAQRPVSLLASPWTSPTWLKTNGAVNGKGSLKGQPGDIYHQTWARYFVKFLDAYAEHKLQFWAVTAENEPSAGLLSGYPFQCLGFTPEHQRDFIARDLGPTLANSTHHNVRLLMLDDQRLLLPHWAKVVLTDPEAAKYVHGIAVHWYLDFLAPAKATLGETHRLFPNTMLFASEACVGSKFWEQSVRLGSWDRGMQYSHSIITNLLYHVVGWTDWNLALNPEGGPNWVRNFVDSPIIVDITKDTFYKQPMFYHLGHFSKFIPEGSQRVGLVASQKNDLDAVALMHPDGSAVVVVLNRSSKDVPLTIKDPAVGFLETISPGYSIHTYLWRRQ

Potency, inactive:
CCOC(=O)CSc1nc2ccccc2c(=O)n1C1CCCC1 > 76.9 µM
CC1=C(C#N)C(c2cn(-c3ccccc3)nc2-c2cccs2)C(C#N)=C(C)N1
CCOC(=O)C1C(=O)OC2(CCCC2)C1C(=O)OCC (stereo not given) > 76.9 µM
CNC(=O)CC(C(=O)O)c1ccc(OCC(C)C)cc1 (stereo not given) > 76.9 µM
Clc1ccc(C2=Nn3c(nnc3-c3cccnc3)SC2)s1 > 76.9 µM
CC(O)[C@H](NC(=O)C1(c2ccccc2)CCN(C(=O)OC(C)(C)C)CC1)C(=O)O (stereo not given in full) > 76.9 µM
O=c1[nH]c(-c2ccncc2)nc2ccccc12 > 76.9 µM
COc1ccccc1N1C(=O)C2CC(C)=C(C)CC2C1=O (stereo not given) > 76.9 µM
O=C(NCCCN1CCOCC1)c1cc2c(=O)[nH]c3ccccc3c2s1 > 76.9 µM
COc1ccc(-c2noc(CCC(=O)NCCCN3CCC(C)CC3)n2)cc1 > 76.9 µM
O=c1[nH]c2cc3c(cc2cc1CN(Cc1cccs1)Cc1nnnn1Cc1ccco1)OCCO3 > 76.9 µM
Cc1nn2c(=O)nc3sc4c(c3c2[nH]c1=O)CCCC4 > 76.9 µM
Cn1c(C(=O)Nc2ccc3c(c2)OCCO3)cc2sccc21 > 76.9 µM
O=c1cc(CN2CCN(CCO)CC2)c2cc3c(cc2o1)CCC3
CC(C)(C)OC(=O)NCCCCCc1nnc(SCC(N)=O)o1 > 76.9 µM
COc1cc(NC(=O)c2ccc(Br)o2)c(C(=O)O)cc1OC > 76.9 µM
Cc1c(C(=O)OC(C)C)[nH]c2c1C(=O)CC(C)(C)C2 > 76.9 µM
CCN1CCCC1CN(Cc1cc2ccc(C)c(C)c2[nH]c1=O)C(=O)Nc1ccccc1OC (stereo not given) > 76.9 µM
CCOc1ccc(C(=O)Nc2ccc(S(=O)(=O)N3CCOCC3)cc2)cc1OCC > 76.9 µM
Cc1nnc(SCC(=O)Nc2cccc(C(F)(F)F)c2)[nH]c1=O > 76.9 µM
CCC1Sc2ccccc2N(CC(=O)NCCC(C)C)C1=O (stereo not given) > 76.9 µM
CN(CC(=O)NC1CCCCC1)S(=O)(=O)c1cccc2nsnc12 > 76.9 µM
CCCCNC(=O)Cn1cnc2sc(C(=O)OCC)c(C)c2c1=O > 76.9 µM
CCC1S/C(=C(\C#N)C(N)=O)N(c2ccc(F)cc2)C1=O (stereo not given) > 76.9 µM
O=S(=O)(c1ccc2c(c1)OCCO2)N(Cc1ccc(F)cc1)Cc1nnc(-c2cccs2)o1 > 76.9 µM
CC1CCCCN1S(=O)(=O)c1ccc(NC(=O)CSc2nnnn2C)cc1 (stereo not given) > 76.9 µM
O=C(O)c1ccc(S(=O)(=O)NC2CCCCC2)cc1 > 76.9 µM
O=C(Nc1ccccc1)N(Cc1cccs1)C1CCCC1 > 76.9 µM
O=c1oc2ccccc2c(O)c1CN1CCCCC1 > 76.9 µM
O=C(c1ccco1)N1CCN(C(c2ccc(Cl)cc2)c2nnnn2CC2CCCO2)CC1 (stereo not given) > 76.9 µM
Cc1ccc(-c2nsc3c(N4CCC(C(N)=O)CC4)ncnc23)cc1 > 76.9 µM
CC(=O)Nc1cc(C(=O)c2ccccc2)ccc1N1CCOCC1 > 76.9 µM
O=C(Nc1ncc2c(n1)CC(c1ccco1)CC2=O)c1ccc(Cl)cc1 (stereo not given) > 76.9 µM
CCOC(=O)c1sc(NC(=O)c2cccs2)cc1C > 76.9 µM
CCOC(=O)c1[nH]nc2c1C(=O)N(CC)C2=O > 76.9 µM
Cc1ccc2c(C(=O)CN3CCCCC3CCO)c(C)[nH]c2c1 (stereo not given) > 76.9 µM
COc1cc(NC(=O)Cc2cccs2)cc(OC)c1 > 76.9 µM
CCCCn1c(=O)n(Cc2cccc(F)c2)c(=O)c2c1ncn2Cc1ccco1 > 76.9 µM
Cc1ccc(-n2c(SCC(=O)N3CCOCC3)nnc2-c2cccnc2)cc1C > 76.9 µM
Cc1ccc(-c2cc(C(=O)Nc3cnn(C45CC6CC(CC(C6)C4)C5)c3)no2)cc1 > 76.9 µM
COC(=O)CC1C(=O)NCCN1C(=O)NC1CCCCC1 (stereo not given) > 76.9 µM
CCOC(=O)c1cccc(NC(=O)CSc2nnc(C3CCCCC3)n2C)c1 > 76.9 µM
CCN(CC)C(=O)CSc1nc2ccccc2c(=O)n1OC > 76.9 µM
COc1ccc(NS(=O)(=O)c2cc(OC)ccc2NC(=O)c2cc(C)oc2C)cc1 > 76.9 µM
c1cc(C2CCCCC2)ccc1Oc1nc(N2CCOCC2)nc(N2CCOCC2)n1 > 76.9 µM
CC(C)C(=O)Nc1ccc(NC(=O)c2ccccn2)cn1 > 76.9 µM
C=CCn1c(SCCCCCC)nc(O)cc1=O > 76.9 µM
COc1cc2nc(C3CCC3)n(NC(=O)C(OC(C)=O)c3ccccc3)c(=O)c2cc1OC (stereo not given) > 76.9 µM
Cc1nc(S(=O)(=O)NC2CCCCC2)c(C#N)c(C)c1Cl > 76.9 µM
CC(C)CCOc1ccc(C(=O)CCNC(C)C(=O)O)cc1 (stereo not given)
COc1ccc(S(=O)(=O)N(Cc2ccccc2)Cc2nc3ccccc3c(=O)[nH]2)cc1 > 76.9 µM
O=C(NCC(F)(F)F)Nc1cccnc1 > 76.9 µM
COc1ccc(S(=O)(=O)N(C)CC(=O)NC2CCCC2)cc1Cl > 76.9 µM
CS(=O)(=O)c1ncc(Cl)c(C(=O)Nc2ccc(N3CCOCC3)cc2)n1 > 76.9 µM
CCCCOc1ccc(-c2ncc(C(=O)O)c(C)n2)cc1 > 76.9 µM
Cc1cc(C)n(-c2nc3c(c(=O)n(C)c(=O)n3C)n2C)n1 > 76.9 µM
COc1ccccc1-n1cnc2cc(NS(=O)(=O)c3ccccc3)ccc21 > 76.9 µM
CCOC(=O)N1CCN(S(=O)(=O)c2cc(Cl)c(OC)cc2Cl)CC1 > 76.9 µM
COc1ccc(OC)c(NC(=O)CCN2CCN(c3ccccc3)CC2)c1 > 76.9 µM
CCSc1nnc(-c2ccccc2NC(C)=O)c(=O)[nH]1 > 76.9 µM
O=C(COC(=O)C1=COCCO1)Nc1ccc2c(c1)OCO2 > 76.9 µM
O=C(C1CCCN(Cc2ccncc2)C1)N1CCc2ccccc2C1 (stereo not given) > 76.9 µM
Cc1nc(NC2=NCN(CCc3ccccc3)CN2)nc2c(C)cccc12 > 76.9 µM
CCN(CC)C(=O)Oc1ccc2c(=O)c(-c3ccc(OC)cc3)coc2c1 > 76.9 µM
CCOc1ccc(OCc2cccc(C(=O)N3CCCC3)c2)cc1 > 76.9 µM
Cc1ccc2cc(CN(Cc3nnnn3C3CCCC3)C3CCCCC3)c(=O)[nH]c2c1C > 76.9 µM
CCCCCCOC(=O)C1=C(C)NC(=O)NC1c1ccc(O)cc1 (stereo not given) > 76.9 µM
CCOC(=O)CSCC(=O)Nc1cc(C)ccc1C > 76.9 µM
C=C(C)c1cccc(C(C)(C)NC(=O)N2CCOCC2)c1 > 76.9 µM
Cc1ccc(OCC(=O)OC2CCS(=O)(=O)C2)cc1 (stereo not given) > 76.9 µM
COc1cccc(NC(=O)c2ccccc2-c2nc(-c3ccccc3)no2)c1 > 76.9 µM
CCOC(=O)c1c(-c2ccc(C)o2)csc1NC(=O)CSc1nnc(C)s1 > 76.9 µM
Clc1ccc(N2CCN(c3ncnc4c3oc3ccccc34)CC2)cc1 > 76.9 µM
CS(=O)(=O)N1CCN(c2ccccc2NC(=O)c2cccnc2)CC1 > 76.9 µM
COCCn1cnc2cc(C)c(C)cc21 > 76.9 µM
O=C(CS(=O)(=O)c1cn(Cc2cccc(F)c2)c2ccccc12)N1CCCCC1 > 76.9 µM
Nc1c(C(=O)OCC2CCCO2)c2nc3ccccc3nc2n1-c1ccc2c(c1)OCCO2 (stereo not given) > 76.9 µM
O=C(NCc1ccc(Cl)cc1)C1C2C=CC3(CN(Cc4cccnc4)C(=O)C13)O2 (stereo not given) > 76.9 µM
Cc1cc(C)c2cc(C(O)c3nnnn3Cc3ccccc3)c(=O)[nH]c2c1 (stereo not given) > 76.9 µM
CCOC(=O)CNC(=O)c1cn(C)c(=O)c2cc(OC)c(OC)cc12 > 76.9 µM
CCCCn1nnnc1NCc1ccc(OC)c(OC)c1OC > 76.9 µM
Cc1cccc(-c2noc(CN(C(=O)c3ccc4c(c3)OCO4)C(C)C)n2)c1 > 76.9 µM
c1ccc(CC2CCN(c3nc(N4CCOCC4)nc(N4CCOCC4)n3)CC2)cc1 > 76.9 µM
CCOC(=O)C1CCN(C(=O)CC2C(=O)N(Cc3ccccc3)C(C)c3nc4ccccc4n32)CC1 (stereo not given) > 76.9 µM
N#Cc1c(NC(=O)COC(=O)C2CC3C=CC2C3)oc(-c2ccccc2)c1-c1ccccc1 (stereo not given) > 76.9 µM
C=CCNC(=O)c1ccc(C(=O)c2ccccc2)cc1 > 76.9 µM
O=C(CSc1nnc(-c2cccnc2)n1-c1ccccc1)Nc1ccc2c(c1)OCO2 > 76.9 µM
Cc1c(C(=O)NCCN2CCOCC2)oc2ccccc12 > 76.9 µM
COc1ccc(S(=O)(=O)N(C)c2ccc(C(=O)NCC3CCCO3)cc2)cc1 (stereo not given) > 76.9 µM
CCOC(=O)N1CCN(C(=O)c2cccc(NC(=O)c3ccco3)c2)CC1 > 76.9 µM
